{"source": "the supplement of paper PMC10338343", "note": "± gives the standard deviation. Whole data set: some 6,600 sequences, median “pre-steady-state target cleavage rate” near 0.07, cut for the highest 2% near 0.72. Only a part is listed here, and it is no random draw.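 Note: 1 nM active piRISC with 0.1 nM target library at 33 °C single turnover.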"}
{"tested_on": "MIWI (PIWIL1) piRISC loaded with Kctd7 piRNA (30 nt)", "assay": "pre-steady-state target cleavage rate (min^-1); MIWI and MILI are mouse PIWI proteins and EfPiwi is from a freshwater sponge; tags in brackets are library labels; higher = faster piRNA-guided slicing of the target", "conditions": "guide: Kctd7 piRNA 5'p-UGUUAAUCUCUCAGAGAAGGUGACAGUGAU; auxiliary factor: 500 nM mouse GTSF1", "method_in_brief": "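Active affinity-purified piRISC carrying one synthetic guide (1 nM) was mixed with a transcribed, DNA-blocked target RNA library […] in HEPES–potassium acetate buffer at 33 °C for 0–8 or 0–960 min, with or without 500 nM GTSF1 partner protein. Uncleaved targets were then sequenced and normalised to depth and to weakly complementary targets. Three trials were pooled, and k3 was capped at 0.0001 min^-1. A burst-and-steady-state fit was applied to obtain the pre-steady-state cleavage rate.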"}
{"sequence": "UACACUGUCACCAAGUCUGAGAGAUUUUGA", "pre-steady-state target cleavage rate": "0.017 ± 0.0098"}
{"sequence": "UAGUGACAGUGGAAGUCUGAGUCUAAUUGA [g10:g15:cont:t1A]", "pre-steady-state target cleavage rate": "0.0281 ± 0.023"}
{"sequence": "UAGUGACAGUCCUUCUCUGAGAGAUUAACCA", "pre-steady-state target cleavage rate": "0.0521 ± 0.0071"}
{"sequence": "UUCACACUCACCUUCUCUGAGAGAUUAACA", "pre-steady-state target cleavage rate": "0.635 ± 0.045"}
{"sequence": "UAGUGACAGUGGAAGAGUGAGAGUAUUAACA", "pre-steady-state target cleavage rate": "< 0.0001"}
{"sequence": "UACACUGUCAGCUUCUCUGAGAGAUUAUGA", "pre-steady-state target cleavage rate": "0.0289 ± 0.009"}
{"sequence": "UAGUCUGACACCUUCUCAGAGAGAUUAACA", "pre-steady-state target cleavage rate": "0.176 ± 0.016"}
{"sequence": "UAGUGACACACCUACUCUGAGAGUUUAACA", "pre-steady-state target cleavage rate": "0.049 ± 0.0098"}
{"sequence": "UAGUGACUCACCUUCUCUGAGAGAUUUUCA", "pre-steady-state target cleavage rate": "0.104 ± 0.016"}
{"sequence": "AUGACUGUCACCUUCUGUGAGAGAUUAACA", "pre-steady-state target cleavage rate": "0.565 ± 0.024"}
{"sequence": "UAGUGAGUCACCAUCUCUGAGAGUUUAACA", "pre-steady-state target cleavage rate": "0.152 ± 0.027"}
{"sequence": "UAGUCAGUGACCUUCUCUGAGAGAUUAACA", "pre-steady-state target cleavage rate": "0.616 ± 0.033"}
{"sequence": "UAGUGACAGUCCUACUCUGAGAGAAUAACA", "pre-steady-state target cleavage rate": "< 0.0001"}
{"sequence": "UUCACUCUCACCUUCUCUGAGAGAUUAUGA", "pre-steady-state target cleavage rate": "0.0483 ± 0.011"}
{"sequence": "UAGUGAGUCACCUUCUCUGGAGAUUAACA", "pre-steady-state target cleavage rate": "0.196 ± 0.018"}
{"sequence": "UAGUGACACACCAUCUCUGAGAGAAUAACA", "pre-steady-state target cleavage rate": "0.0218 ± 0.0057"}
{"sequence": "AUCACUCUCAGCUUCUCUGAGAGAUUAACA", "pre-steady-state target cleavage rate": "0.142 ± 0.016"}
{"sequence": "UAGUGUGUCAGCUUCUCUGAGAGAUUUACA", "pre-steady-state target cleavage rate": "0.211 ± 0.026"}
{"sequence": "UAGUGUGUCACGUUCUGUGAGAGAUUAACA", "pre-steady-state target cleavage rate": "0.478 ± 0.033"}
{"sequence": "UAGACUGUCACCUUCUCUGAGAGGUUAACA", "pre-steady-state target cleavage rate": "0.439 ± 0.039"}
{"sequence": "UAGACUGUCACCUUCUCUCAGAGAUUAACA", "pre-steady-state target cleavage rate": "0.154 ± 0.016"}
{"sequence": "AUCACUGUCACCUUCUCUGAGAGUAAUUGA", "pre-steady-state target cleavage rate": "0.143 ± 0.042"}
{"sequence": "UAGUGACUCUCCUUCUCUGAGAGAUAAACA", "pre-steady-state target cleavage rate": "0.0234 ± 0.0037"}
{"sequence": "UAGUGACUCACCUUCUCUGAUAGAUUAACA", "pre-steady-state target cleavage rate": "0.778 ± 0.035"}
{"sequence": "AUCACUGUCACCUUCUCUGAGACGAUUAACA", "pre-steady-state target cleavage rate": "0.0442 ± 0.009"}
{"sequence": "UACACUGUCACCUUUUCUGAGAGAUUAACA", "pre-steady-state target cleavage rate": "0.681 ± 0.049"}
{"sequence": "UAGUGACAGUCCUUCUCUGGGAGAUUAACA", "pre-steady-state target cleavage rate": "0.0168 ± 0.0033"}
{"sequence": "UAGUGACAGACCUUCACUGAGAGAUUAUCA", "pre-steady-state target cleavage rate": "0.0258 ± 0.0082"}
{"sequence": "UAGUGACACACCAUCUGUGAGAGAUUAACA", "pre-steady-state target cleavage rate": "0.0561 ± 0.0097"}
{"sequence": "UAGUGAGUCACCUUCUGUGUGAGAUUAACA", "pre-steady-state target cleavage rate": "0.0768 ± 0.0083"}
{"sequence": "UAGUCAGUCACCUUCUCUGACAGAUUAACA", "pre-steady-state target cleavage rate": "0.104 ± 0.014"}
{"sequence": "UAGUGACUCAGCUUCUCUGAGAGAUUAUGA", "pre-steady-state target cleavage rate": "0.00346 ± 0.0026"}
{"sequence": "UAGUGAGUCACCUUCUCUGACACAUUAACA", "pre-steady-state target cleavage rate": "0.0575 ± 0.0091"}
{"sequence": "UAGUGUGUCACCUUCUCUGAGAGAUUAACCA", "pre-steady-state target cleavage rate": "0.535 ± 0.041"}
{"sequence": "UAGUGACACACCUUCUCUGAUAGAUUAACA", "pre-steady-state target cleavage rate": "0.714 ± 0.054"}
{"sequence": "AUCACUGUCACCUUCUGUGACAGAUUAACA", "pre-steady-state target cleavage rate": "0.0389 ± 0.0096"}
{"sequence": "UAGUCUGUCACCUUCUCUGACAGAUUAACA", "pre-steady-state target cleavage rate": "0.0465 ± 0.0095"}
{"sequence": "UAGUGACAGUCCUUCUGUGAGAGUUUAACA", "pre-steady-state target cleavage rate": "0.00973 ± 0.0024"}
{"sequence": "UUCACUGUCACCUUCUCUCAGAGAUAUUGA", "pre-steady-state target cleavage rate": "0.00752 ± 0.0041"}
